PubChem BioAssay (NCI)
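The compound was tested at five concentrations on cells cultured in 96-well plates, with a 48-hour exposure period. The concentration for 50% growth inhibition is given as GI50. The concentration for full growth arrest is given as TGI.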

Tested on: NCI-H322M lung
Assay: inhibition of tumour cell growth, NCI panel, 48 h

Row | SMILES | GI50 [µM] | TGI [µM]
1 | CC(=O)Oc1ccccc1C(=O)[Se]CC(=O)Nc1cccc(C(F)(F)F)c1 | 2.56 | 7.75
2 | COc1ccc(-c2ccnc(SCc3cc4cc(OC)ccc4[nH]c3=O)n2)cc1 | 43.7 | > 100
